PubChem BioAssay AID504466 (National Center for Advancing Translational Sciences (NCATS), 2011)
Out of some 330,000 compounds screened, about 4,200 (1.3%) were called active. The shares of active, inactive and inconclusive entries below differ from those in the screen. Calls follow the shape of the dose curve; as a rule, active = well fitted activation curve with a large enough effect; inconclusive = small, poorly fitted or top-dose-only effect; inactive = no such curve, though single readings can be large or run the other way. Potencies beside an inconclusive call are fits to weak or partial responses and may not hold up.

Test: qHTS screen for small molecules that induce genotoxicity in human embryonic kidney (HEK293T) cells expressing luciferase-tagged ELG1; also: nearly all actives have a fitted effect of over 60% in size
Conditions: HEK293T ELG1-luciferase reporter, luminescence, 16 h; series mostly up to 46 µM
Procedure, shortened: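 Screening used a luciferase reporter fused to human ELG1 in HEK293T cells. Luminescence was read on a CCD plate imager after 16 hr exposure and 30 min ONE-Glo incubation.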
Potency is read from the fitted curve at half-maximal effect; tags tell the direction and shape of the fitted curve.

Structure (SMILES)	Potency
Oc1c(CN2CCN(c3ccc(F)cc3)CC2)cc(Cl)c2cccnc12	inconclusive: 32.6 µM [activator, partial curve, poor fit]
CC(OC(=O)CN1C(=O)NC(C)(C)C1=O)C(=O)c1ccccc1 (stereo not drawn)	inactive
COc1cccc(-c2nnc(NC(=O)c3cccs3)s2)c1	inconclusive: 9.2 µM [activator, partial curve]
Cc1ccc(C(=O)NCC(=O)OCC(=O)c2cc(C)n(Cc3ccco3)c2C)cc1	inactive
CN(C)c1ccc(C=NCC2COc3ccccc3O2)cc1 (stereo not drawn)	inactive
O=C(Nc1ccc(NC(=O)c2sc3ccccc3c2Cl)cc1Cl)c1ccco1	inconclusive: 23.1 µM [activator, partial curve, poor fit]
CC(C)c1cc(C(=O)NCc2ccco2)no1	active: 14.6 µM
O=C(CSc1ccc(-c2ccco2)nn1)Nc1ccc(F)cc1F	inactive
CC(=O)c1sc(Nc2ccccn2)nc1C	inconclusive: 25.9 µM [activator, partial curve, poor fit]
COc1cccc(CNc2nc3nc(C)cc(C)n3n2)c1	inconclusive: 17.8 µM [activator, partial curve, poor fit]
CC1C/C(=C/c2ccco2)C(=O)/C(=C/c2ccco2)C1 (stereo not drawn)	inconclusive: 18.4 µM [activator, partial curve, poor fit]
COc1ccc(-c2noc(CCC(=O)Nc3ccc4c(c3)OCCO4)n2)cc1	inactive
N#Cc1ccc(CO/N=C/c2ccccc2)cc1	inconclusive: 18.3 µM [activator, partial curve]
CN(CC(=O)Nc1cccc(F)c1)CC(=O)NC(c1ccccc1)c1ccccc1	inactive
O=C(c1ccc(Cl)cc1[N+](=O)[O-])N1CCOCC1	inconclusive: 7.3 µM [activator, partial curve, poor fit]
Cc1ccc(-c2cn3nc(C)c(C)nc3n2)cc1	inconclusive: 0.259 µM [activator, partial curve, poor fit]
FC(F)Oc1ccc(C2N=C(c3ccccc3)NO2)cc1 (stereo not drawn)	inconclusive: 5.8 µM [activator, full curve]
O=C(NCC1CCCO1)c1cc2c(s1)CCC2 (stereo not drawn)	inconclusive: 16.4 µM [activator, partial curve, poor fit]
CCCCOc1cccc(C(=O)Nc2ccc(NC(=O)c3ccco3)cc2)c1	inconclusive: 32.6 µM [activator, partial curve, poor fit]
O=C(Nc1cccc(F)c1)Nc1ccc2c(c1)CCC2	inconclusive: 6.51 µM [activator, partial curve]
CCn1nc(C)cc1C(=O)Sc1ccc(C)cc1	inactive
COc1cc(C=O)ccc1OCc1ccc(Cl)nc1	inconclusive: 20.6 µM [activator, single point]
COc1cc(/C=C2\CCc3c2nc2ccccc2c3C(=O)O)cc(OC)c1OC	active: 23.1 µM
O=C(Nc1cccc(OCC(=O)N2CCOCC2)c1)C1CCCCC1	inconclusive: 6.51 µM [activator, partial curve, poor fit]
CC(=O)c1ccc(OCCCC(=O)Nc2nnc(C3CC3)s2)cc1	inconclusive: 25.9 µM [activator, partial curve, poor fit]

Structure (SMILES)	Potency
N/C(=N\N=C\c1cccc([N+](=O)[O-])c1)c1nonc1N	inconclusive: 16.4 µM [activator, partial curve, poor fit]
COc1cc(-c2cc(=O)c3c(O)cc(O)cc3o2)ccc1O	inconclusive: 16.4 µM [activator, partial curve, poor fit]
CN(C)CCCN(C(=O)c1cccs1)c1nc(-c2ccccc2)cs1	inconclusive: 29.1 µM [activator, partial curve, poor fit]
N/C(=N\OC(=O)COc1ccc(Cl)cc1Cl)c1cccnc1	inconclusive: 16.4 µM [activator, partial curve, poor fit]
O=C(O)c1cc(N/N=C/c2ccc(-c3ccccc3)cc2)ccc1Cl	active: 0.461 µM
COc1ccc(NC(=O)C2CCCNC2)cc1OCC(C)C (stereo not drawn)	inactive
S=C(c1ccc(-c2ccc(Cl)cc2Cl)o1)N1CCCCC1	inconclusive: 5.17 µM [activator, partial curve, poor fit]
O=C(CN(Cc1ccccc1)C(=O)CCC(=O)Nc1ccccn1)NCc1ccc(F)cc1	inactive
CCn1nnnc1SCC(=O)N1CCCCC1	inactive
CCN(CC(=O)Nc1ccc2c(c1)OCCO2)C(=O)c1ccc(S(=O)(=O)N(C)C)cc1	inactive
O=C(Nc1cccc(Br)c1)c1cc(S(=O)(=O)N2CCOCC2)cs1	inactive
COc1ccc(-c2nc(-c3ccncc3)no2)c(OC)c1	active: 2.91 µM
CC(C)C(=O)Nc1ccc2nn(-c3ccc(F)cc3)nc2c1	inconclusive: 2.06 µM [activator, partial curve]
Cn1c(=O)c2c(ncn2CC(=O)N2CCN(C(=O)c3ccco3)CC2)n(C)c1=O	inactive
COc1ccc(C(=O)COC(=O)c2ccn(C)n2)cc1	inconclusive: 16.4 µM [activator, partial curve, poor fit]
Cn1nc(C(F)(F)F)c(-c2ccc(Br)cc2)c1NC(=O)c1nccnc1C(=O)O	inactive
Oc1ccc(Cl)cc1CNc1ccc(Br)cn1	inconclusive: 20.6 µM [activator, single point]
COc1ccc(/C=C/C(=O)OCC(=O)c2ccccc2F)cc1	inconclusive: 20.6 µM [activator, partial curve, poor fit]
COc1ccc(OC)c(NC(=O)c2cc(-c3cc(C)cc(C)c3O)n[nH]2)c1	inconclusive: 25.9 µM [activator, partial curve, poor fit]
S=c1[nH]ncn1/N=C/c1ccc(N2CCOCC2)cc1	active: 16.4 µM
O=C(Nc1nc2ccccc2[nH]1)c1ccccc1	active: 0.517 µM
COc1cccc(NC(=O)Nc2ccc(C)c(Cl)c2)c1	inconclusive: 9.2 µM [activator, partial curve, poor fit]
O=C(NC(=S)Nc1cccnc1)c1cc2ccccc2o1	inconclusive: 23.1 µM [activator, partial curve, poor fit]
Cc1cc(NC(=O)c2noc3c2CCc2ccccc2-3)no1	inconclusive: 13 µM [activator, partial curve]
COc1ccc(N=CC2=C(O)CC(C)(C)CC2=O)cc1	inconclusive: 16.4 µM [activator, partial curve, poor fit]

Structure (SMILES)	Potency
O=C(CSc1nnc(CCCN2C(=O)c3cccc4cccc(c34)C2=O)n1-c1ccccc1)N1CCCCC1	inactive
COc1ccc(/C(C)=N/NC(=O)c2nnn(-c3nonc3N)c2-c2ccccc2)cc1	inconclusive: 29.1 µM [activator, single point]
CNc1oc(/C=C/c2cccc(OC)c2)nc1C#N	active: 20.6 µM
Cc1ccc(-c2ccc(C(=O)O)[nH]2)cc1	inactive
O=C(NCCC1=CCCCC1)c1ccc(Br)o1	active: 16.4 µM
Cc1ccnc(NC(=O)/C=C/c2ccccc2Cl)c1	inconclusive: 0.461 µM [activator, full curve]
COc1ccc2c(c1)O/C(=C\c1sccc1C)C2=O	active: 18.4 µM
Cc1c(NC(=O)c2ccco2)cccc1C(=O)NN1C(=O)c2ccccc2C1=O	inactive
CC(=O)Nc1ccc(C(=O)CCl)cc1	inconclusive: 23.1 µM [activator, single point]
c1ccc(-c2noc(-c3ccc4c(c3)OCO4)n2)nc1	inconclusive: 0.103 µM [activator, full curve]
CCN(CC)c1ccc(/C=N/NC(=O)CCC(=O)NCc2ccccc2)c(O)c1	inconclusive: 18.4 µM [activator, single point]
Cn1ccc2cc3c(cc21)CCN3C(=O)Nc1cccnc1	inconclusive: 6.51 µM [activator, single point]
COc1cccc(/C=N/Nc2ncnc3c2ncn3Cc2ccccc2)c1O	inconclusive: 18.4 µM [activator, partial curve, poor fit]
Cc1[nH]n(-c2ccc([N+](=O)[O-])cc2)c(=O)c1C=NCC1CCCO1 (stereo not drawn)	inconclusive: 25.9 µM [activator, partial curve, poor fit]
Clc1cccc(-c2nc(-c3ccc(-c4nn[nH]n4)cc3)no2)c1	inconclusive: 23.1 µM [activator, single point]
O=C(CC(SCCO)c1ccc2c(c1)OCO2)c1ccco1 (stereo not drawn)	inconclusive: 25.9 µM [activator, single point]
Cc1cnc(C(=O)NCCc2ccc(Cl)cc2)cn1	inconclusive: 8.2 µM [activator, partial curve, poor fit]
Cc1cc(C(=O)CSc2nnc(-c3ccco3)o2)c(C)n1Cc1ccco1	inconclusive: 20.6 µM [activator, partial curve, poor fit]
CC(C)(C)C(=O)Nc1ccc2oc(-c3cc(F)c(F)cc3Cl)nc2c1	active: 5.17 µM
O=C(NCCc1cccs1)c1cccs1	inconclusive: 20.6 µM [activator, partial curve, poor fit]
Cc1ccc(Nc2nc(C)cs2)cc1	active: 20.6 µM
CCN(CC)C(=O)c1sc2nc(-c3ccc(OC)cc3)cn2c1C	inconclusive: 5.8 µM [activator, partial curve]
CC(C)(C)n1ncc2c(=O)n(CC(=O)NCc3ccccc3)cnc21	inconclusive: 1.84 µM [activator, full curve]
